The list shows a part of the results.
system: PfHDP1 homeodomain (GST-tagged); assay: gcPBM binding intensity (ln(normalized median fluorescence intensity)); higher = stronger DNA binding
How it was run: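 GST-fused DNA-binding domains of P. falciparum, expressed in E. coli, were applied at about 25 μg on average for 1 h to an Agilent 4 × 180k array of primer-extended double-stranded 36-bp intergenic genomic probes and negative controls. Binding intensity is the highest Masliner-normalised natural-log median intensity across replicate spots of either probe orientation, measured with Alexa488 anti-GST antibody and a 488 nm scan.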

Row | Sequence | gcPBM binding intensity (ln)
1 | CAAAAGGATATGCACACACACACACGGATATTTATA [CACACA_site7099] | 10.1
2 | TTTTGTTATTAGAGGGTGCTTATAATGAACTCCTAC | 6.36
3 | TCAATCATCTTATATAGTACACATAAAAGTATTATA [XGTACX_site8513] | 6.17
4 | GACAAAATGATAGGGACACACAATATCAATGTTTAA [CACACA_site765] | 6.01
5 | ATTACATTAATAAGAGTGCATTATATAAGTTTTATG | 8.58
6 | AAAAAAAAAAATCCAGTGCATATATTTTTTACATAT | 8.69
7 | CCACTAATAAATATTACACACATATAGATTTATATT [CACACA_site7465] | 6.65
8 | TTATTTTTTTTATATATATGTATAAATATATATATA [XGTACX_negctrl_site441] | 7.84
9 | AGGCACACAAACATATGTACACATATATATATATAT [XGTACX_site4723] | 9.26
10 | ATATAACATATCAATTGTACGTATTGATAATATATA [XGTACX_site2504] | 6.28
11 | ATATTTATATGGTTTGCACACATAACAACTATGGTT [CACACA_site3631] | 9.75
12 | TTTTGTTTTAATTTTATTTGATTTTATTTGATTTAT [CACACA_negctrl_site692] | 6.68
13 | TTTATTGAACGTACACATATATATATGTATATATTT [TGCATGCA_negctrl_site141] | 6.71
14 | AAATATTATTTATTTACACACCAATCTTCTTTTCTT [CACACA_site3990] | 6.43
15 | TACGTTCTAATATATACACACCTGGTATTAATTATG [CACACA_site5260] | 6.64
16 | ATATATATAAAATATACACACATACTGTTCATTTAA [CACACA_site6149] | 6.63
17 | TTTTATTATTAATTTCTTTTTTCTCATCACTTTCAA [XGTACX_negctrl_site117] | 6.45
18 | TTTACAAAAAATTATACACACACGTACATATAAATA [CACACA_site945] | 6.6
19 | TAATTTATGAGTAATACACACACTTGTGGATATATT [CACACA_site3790] | 6.73

Row | Sequence | gcPBM binding intensity (ln)
20 | AAAAAAAAAAATTACACACATACATATAATAATAAT [CACACA_site2193] | 6.55
21 | AAAAACTTAATATTCACACATATATATATATATATA [CACACA_site5240] | 9.48
22 | CGTATATATATATACACACACATATATATATGTAAA [CACACA_site195] | 6.81
23 | TATTTCCATTCATAATTTTGTAGAATATATAACCGT [CACACA_negctrl_site1531] | 6.4
24 | AAATAAAGATATATATATATATATATATATAATTTT [CACACA_negctrl_site30] | 7.02
25 | AATATAAAAAGGCACACACACAAAAAAAAAAAAAAA [CACACA_site896] | 6.56
26 | AAATATTTTGCATACACATGCAAATATTTTTTACAT [TGCATGCA_site554] | 7.05
27 | AAAATGTGCATATTTGCACACTTCAATATATATATA [CACACA_site1791] | 11.2
28 | CATAAATCAGCCATAACACACATACCTATATACATA [CACACA_site6324] | 6.45
29 | AATCTCAGAATATACTGTACTTTAAGAAAAAAAAAA [XGTACX_site110] | 6.14
30 | AATATATATTTGTGTACACATTATATATATATATAT [CACACA_site6103] | 9.23
31 | AAAATTTAAATAGGAAGTACGTTCACTAAGAAAATA [XGTACX_site6546] | 6.87
32 | TGAAAGAACCTGATTACACACATAAGTTATAAATAT [CACACA_site6165] | 6.19
33 | TTCTTTATTTTTTCTACACACATTATGTATTCAAAG [CACACA_site3527] | 7.51
34 | TGAAAGAATGTTAATAGTACACACAATTATTATATA [XGTACX_site7936] | 6.38
35 | TAAGAACTATTCAGTAGTACCTATATGGATTACTAA [XGTACX_site4278] | 5.72
36 | ATTGATATTGTATAATGTACAGGAAAAAAAAAAAAA [XGTACX_site526] | 6.59
37 | GAAAATATTAAATGAAGTACAATATTTATGTTACTT [XGTACX_site8737] | 6
38 | TTTTATATTTTAAGAGTGCATTTTATATCTTTTTCT | 7.98

Row | Sequence | gcPBM binding intensity (ln)
39 | TTTATATTTCTTCATCGTACACATAAAAAAAAAAAA [XGTACX_site3244] | 6.74
40 | ATACTCACGAAACACACACACAATATATATATATAT [CACACA_site4136] | 9.18
41 | AGGATATGCGGACACACACACATATATATATATATA [CACACA_site5247] | 9.38
42 | ATAATTTAAAAACATTGTACATTAATATATATGTAT [XGTACX_site8970] | 6.24
43 | ATAATAACTGATAAATGTACATATAAATTTTATGAT [XGTACX_site195] | 6.72
44 | GAAAATTTAAAAAGAGTGCATTATATGTTTGAATAT [GTGCAC_site9564] | 8.73
45 | TTTAACGAATAAAAATGTACAAATTTATACATTTAT [XGTACX_site2805] | 6.09
46 | AATAAAATAATAAAAGCACACAAGAATACACCCAAA [CACACA_site7919] | 7.1
47 | CTTTTTTTCTTTCCAAGTACTAAATTCATACAAATT [XGTACX_site2605] | 6.37
48 | TTTTATTTATAATACTCACACATTTATATTACATAT [CACACA_site6000] | 6.69
49 | CAAAAGGATGTGGGATGTACATATGAAAAAAAAAAA [XGTACX_site8059] | 6.6
50 | TAAATTTAAAAATCTGCACACATTTAAAAAAAAAAA [CACACA_site2515] | 7.28
51 | ATTACTAAAAAATATAAACACACATATATTTTACAT [CACACA_site8633] | 6.58
52 | GGTCTTTTTTTCAAAAGTACATAAATAAAAAAGGTT [XGTACX_site2894] | 6.59
53 | TTGTATGTAAAAAAGTGTACATGAGTGATTATATAA [XGTACX_site8166] | 6.91
54 | GTATATATCCCAAAATGTACATAATTTATTATTTAT [XGTACX_site2842] | 6.5
55 | ATTTATTTTCTGTGTACACATATGTTGGGTATTTTA [CACACA_site5902] | 7.78
56 | AGAAAAAAAAAAAGTACACACATATAACATATAGAT [CACACA_site7410] | 6.45
57 | ATAGGTAAAAAGTATACACACGTTGACACATTCTTT [CACACA_site4794] | 6.46
